Here are results for 49 compounds from article PMC6919601, “Identification of Plasmodium dipeptidyl aminopeptidase allosteric inhibitors by high throughput screening” (PLoS ONE, 2019).

Molecules are shown by their SMILES. The whole screen tested about 110,000 compounds, of which about 230 (0.21%) showed an effect of 50% or more. The list shows a part of the results.
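Further: 30 min substrate incubation versus DMSO and 10 µM JCP410 controls.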

DPAP1, sequence (Q8IIJ9 whole entry, looked up): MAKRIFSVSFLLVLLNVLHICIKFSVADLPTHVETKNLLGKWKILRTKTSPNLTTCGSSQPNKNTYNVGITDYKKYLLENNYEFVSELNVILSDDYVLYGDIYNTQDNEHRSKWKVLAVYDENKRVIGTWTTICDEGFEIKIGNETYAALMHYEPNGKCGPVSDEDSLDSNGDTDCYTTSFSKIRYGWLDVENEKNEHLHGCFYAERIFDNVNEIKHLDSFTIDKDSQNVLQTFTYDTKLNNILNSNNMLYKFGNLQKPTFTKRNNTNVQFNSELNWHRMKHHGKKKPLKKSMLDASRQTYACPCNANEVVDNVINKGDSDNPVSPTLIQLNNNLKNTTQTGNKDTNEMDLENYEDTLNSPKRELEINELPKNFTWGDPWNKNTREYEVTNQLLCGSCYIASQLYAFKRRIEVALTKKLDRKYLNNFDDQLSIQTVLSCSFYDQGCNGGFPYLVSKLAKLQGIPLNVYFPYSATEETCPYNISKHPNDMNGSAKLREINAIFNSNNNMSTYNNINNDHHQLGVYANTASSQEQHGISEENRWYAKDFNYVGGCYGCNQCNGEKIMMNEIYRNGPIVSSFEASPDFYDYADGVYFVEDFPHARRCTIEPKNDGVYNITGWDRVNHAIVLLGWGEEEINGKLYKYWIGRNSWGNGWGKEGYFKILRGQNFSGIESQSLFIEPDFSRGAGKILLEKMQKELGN

This experiment concerns the target DPAP1 (Plasmodium falciparum, UniProt Q8IIJ9). Put plainly: primary screen, percent inhibition; read by cleavage of a fluorogenic dipeptide substrate; higher = more effect of the substance. Also noted: species or system P. falciparum D10 trophozoite lysates; single well.
With `COCCNC(=O)Cc1c(C(=O)O)n(C)c2ccccc12`, the “% Inhibition @ 10 uM” value was determined as 0.457%.

As to `COC(=O)C1CCCc2c1[nH]c1ccc(Cl)cc21` (stereo not shown), the “% Inhibition @ 10 uM” value is 6.39%.

Turning to `CCn1c(C(=O)NC(C)CCc2ccccc2)cc2sccc21` (stereo not shown), the “% Inhibition @ 10 uM” value is -8.58%.

`Cc1cccn2c(=O)c(/C=C(\C#N)C(=O)NCC3CCCO3)c(Oc3ccccc3F)nc12` (stereo not shown): the “% Inhibition @ 10 uM” value is on record as -1.43%.

With `Cc1ccc(C(=O)CCNc2ccc(Cl)cc2)o1`, the “% Inhibition @ 10 uM” value is -4.93%.

Take `Cn1cnc2c(=O)oc3ccc(S(=O)(=O)NCCC4=CCCCC4)cc3c21`: the “% Inhibition @ 10 uM” value is reported as -3.66%.

As to `C=CCOc1ccccc1/C=c1\sc2nc(=O)c(-c3ccccc3)nn2c1=O`, the “% Inhibition @ 10 uM” value is -5.2%.

Consider `CN(CC(=O)N1CCN(c2ccccc2)CC1)S(=O)(=O)c1cc(Cl)ccc1Cl`, for which the “% Inhibition @ 10 uM” value is given as -3.77%.

Turning to `CCC(C)NC(=O)Cn1ccc2cc(S(=O)(=O)N3CCCC3)ccc21` (stereo not shown), the “% Inhibition @ 10 uM” value is recorded as 3.64%.

Regarding `CCn1c(-c2ccccc2)cc(C(=O)O)c1C`, the “% Inhibition @ 10 uM” value was -3.33%.

For `CC(Cc1ccc(OCCCN(C)C)cc1)N(C)C` (stereo not shown), the “% Inhibition @ 10 uM” value is on record as -3.65%.

Turning to `CC1=C(C(=O)Nc2cccc(C)c2C)C(c2ccc(N(C)C)cc2)NC(=O)N1` (stereo not shown), the “% Inhibition @ 10 uM” value was determined as 3.27%.

Turning to `Cc1ccc(S(=O)(=O)Nc2cc(S(N)(=O)=O)ccc2C)cc1`, the “% Inhibition @ 10 uM” value is on record as -3.72%.

For `COc1ccc(S(=O)(=O)N2CC=C(c3c(C)n(CC(=O)N4CCCC4)c4ccccc34)CC2)cc1`, the “% Inhibition @ 10 uM” value amounted to 3.96%.

`O=C(O)c1cc(-c2ccncc2)nc2[nH]nc(-c3ccc(F)cc3)c12`: the “% Inhibition @ 10 uM” value was -6.69%.

`Cc1ccc2nc(N3CCCCCC3)c3nnnn3c2c1`: the “% Inhibition @ 10 uM” value is -0.943%.

Consider `OC1CCCN(Cc2cc(Br)cs2)C1` (stereo not shown), for which the “% Inhibition @ 10 uM” value is listed as -4.5%.

On to `CCC(C)N1CCN(Cc2cccc(OC)c2OC)CC1` (stereo not shown), for which the “% Inhibition @ 10 uM” value came to 5.15%.

As to `CC(C)(C)c1ccc(-c2noc(CCC(=O)N3CCCCC3)n2)cc1`, the “% Inhibition @ 10 uM” value stood at 2.02%.

Take `CCC(Sc1nc2ccccc2c2nc(CCn3cncc3C)nn12)C(=O)NC1CCCCC1` (stereo not shown): the “% Inhibition @ 10 uM” value stood at 1.91%.

Take `CN1CCN(Cc2ccc(F)c(Br)c2)CC1`: the “% Inhibition @ 10 uM” value is listed as -1.86%.

Regarding `CCOC(=O)C1=C(C)OC(N)=C(C#N)C1c1c(C)c(C)cc(C)c1C` (stereo not shown), the “% Inhibition @ 10 uM” value came out at 0.968%.

As for `Cc1ccc(N2CCN(c3ncnc4c3cnn4-c3ccccc3)CC2)cc1`, the “% Inhibition @ 10 uM” value was -6.74%.

`CCN1CCCC1CNC(=O)c1cnn(-c2ccc(F)cc2)c1C1CCN(C(=O)OC(C)(C)C)CC1` (stereo not shown): the “% Inhibition @ 10 uM” value is -0.887%.

Take `COc1ccc(-c2cc(C(F)(F)F)n3nc(C(=O)NCC4CCCO4)cc3n2)cc1` (stereo not shown): the “% Inhibition @ 10 uM” value is -0.795%.

In the case of `COc1c(Br)cc(Cl)cc1C1C(C#N)=C(N)OC2=C1C(=O)CC(C)(C)C2` (stereo not shown), the “% Inhibition @ 10 uM” value came to 8.5%.

Consider `Cc1ccc(NC(=O)C23CC4CC(CC(C4)C2)C3)cc1[N+](=O)[O-]`, for which the “% Inhibition @ 10 uM” value is given as -7.87%.

As to `OC(CN1CCNCC1)Cn1c2ccccc2c2cc(Br)ccc21` (stereo not shown), the “% Inhibition @ 10 uM” value is 5.01%.

On to `CC(C)(C)OC(=O)NC(CC1CCOCC1)C(=O)NCC#N` (stereo not shown), for which the “% Inhibition @ 10 uM” value is recorded as -3.48%.

In the case of `O=C(Cc1cccc2ccccc12)NC1CCCCCC1`, the “% Inhibition @ 10 uM” value worked out at 0.238%.

On to `OC1CCCN(Cc2ccccc2Cl)C1` (stereo not shown), for which the “% Inhibition @ 10 uM” value amounted to 3.16%.

On to `O=C1C2CC=CCC2C(=O)N1c1ccccc1` (stereo not shown), for which the “% Inhibition @ 10 uM” value is -5.84%.

As to `COc1ccc(-c2nc3nc(C)c(Cl)c(C)n3n2)cc1`, the “% Inhibition @ 10 uM” value was -0.671%.

Regarding `CCC1(CC)C(=O)NC(=O)N(C(=O)c2ccccc2)C1=O`, the “% Inhibition @ 10 uM” value is listed as -3.58%.

For the compound `CC(C)CCNC(=O)C1CCCN(c2nnc(-n3cccc3)s2)C1` (stereo not shown), the “% Inhibition @ 10 uM” value is given as 1.15%.

Turning to `N#Cc1ccc(Cn2cc(C(=O)C(=O)N3CCCCC3)c3ccccc32)cc1`, the “% Inhibition @ 10 uM” value is -0.124%.

For `CCOC(=O)c1cnc2c(ccc3ccccc32)c1NCCN(C)C`, the “% Inhibition @ 10 uM” value was -2.87%.

As for `CN(CC(=O)Nc1ccc(S(N)(=O)=O)cc1)S(=O)(=O)c1cc(Cl)ccc1Cl`, the “% Inhibition @ 10 uM” value is given as -2.8%.

Consider `CN(C)c1ccc2c(c1)OC(N)=C(C#N)C2c1ccc(C(F)(F)F)cc1` (stereo not shown), for which the “% Inhibition @ 10 uM” value stood at 6.41%.

For `CCN(CC)C(=O)C1CCN(c2ncnc3c2nc2n3CCCCC2)CC1`, the “% Inhibition @ 10 uM” value is listed as 6.14%.

Regarding `Cc1ccc(NS(=O)(=O)c2cccc(C(=O)NCc3ccccc3)c2)cc1`, the “% Inhibition @ 10 uM” value was found to be 3.25%.

For `CCN(CC)C(=O)C1CCCN(Cc2cccc(F)c2)C1` (stereo not shown), the “% Inhibition @ 10 uM” value was -1.92%.

For the compound `CCCOc1ccc2ccccc2c1/C=N/n1c(C)nnc1-n1nc(C)cc1C`, the “% Inhibition @ 10 uM” value is -4.85%.

For `Cn1c(C(=O)NCc2ccco2)cc2c(=O)n3ccccc3nc21`, the “% Inhibition @ 10 uM” value is recorded as 2.03%.

With `O=C(Cc1ccccc1)NCCCc1nc2ccccc2n1Cc1ccccc1F`, the “% Inhibition @ 10 uM” value was -1.29%.

As to `C=CCOc1ccc(C(=O)NCC2OCCc3ccccc32)cc1` (stereo not shown), the “% Inhibition @ 10 uM” value is on record as -3.41%.

Turning to `CCC(C)/N=c1/c(-c2ccc(C)cc2)c(O)c1=O` (stereo not shown), the “% Inhibition @ 10 uM” value is -2.57%.

For `O=c1oc(-c2ccc(Br)cc2)nc2ccccc12`, the “% Inhibition @ 10 uM” value is given as 4.22%.

For `Nc1cc(-c2ccccc2)nn1S(=O)(=O)c1cc(Cl)sc1Cl`, the “% Inhibition @ 10 uM” value is listed as -0.495%.
